The source of these data is patent US11366114B2, “Genetically encoded fluorescent sensors for detecting ligand bias and intracellular signaling through cAMP pathways” (MONTANA MOLECULAR LLC, priority 2013, dated 2022).

B1: Library 2-2 F9: cAMP sensor; SEQID 12 in Table 1, SEQ ID NO: 13 in Table 3 (protein)
chain: MVAAHAAHSSSSAEWIACLDKRPLERSSEDVDIIFTRLKEVKAFEKFHPNLLHQICLCGYYENLEKGITLFRQGDIGTNWYAVLAGSLDVKVSETSSHQDAVTICTLGIGTAFGESILDNTPRHATIVTRESSELLRIEQKDFKALWEKYRQYMAGLLAPPYGVMETGSNNDRIPDKENTPLIEPHVPLRPANTITKVPSEKILRAGKILRNAILSRAPHMIRDRKYHLKTYRQCCVGTELVDWMMQQTPCVHSRTQAVGMWQVLLEDGVLNHVDQEHHFQDKYLFYRFLDDEHEDAPLPTEEEKKECDEELQDTMLLLSQMGPDAHMRMILRKPPGQRTVDDLEIIYEELLHIKALSHLSTTVKRELAGVLIFESHAKGGTVLFNQGEEGTSWYIILKGSVNVVIYGKGVVCTLHEGDDFGKLALVNDAPRAASIVLREDNCHFLRVDKEDFNRILRDVLENVYIKADKQKNGIKANFKIRHNIEDGGVQLAYHYQQNTPIGDGPVLLPDNHYLSVQSILSKDPNEKRDHMVLLEFVTAAGITLGMDELYKGGTGGSMVSKGEELFTRGVVPIQVELDGDVNGHKFSVSGEGEGDATYGKLTLKFICTTGKLPVPWPTLVTTLTYGVQCFSRYPDHMKQHDFFKSAMPEGYIQERTIFFKDDGNYKTRAEVKFEGDTLVNRIELKGIDFKEDGNILGHKLEYNTRNTVRLKEHDQDVLVLEKVPAGNRASNQGNSQPQQKYTVMSGTPEKILEHFLETIRLEATLNEATDSVLNDFIMMHCVFMPNTQLCPALVAHYHAQPSQGTEQEKMDYALNNKRRVIRLVLQWAAMYGDLLQEDDVSMAFLEEFYVSVSDDARMIAALKEQLPELEKIVKQISEDAKAPQKKHKVLLQQFNTGDERAQKRQPIRGSDEVLFKVYCMDPTYTTIRVPVATSVKEVISAVADKLGSGEGLIIVKMSSGGEKVVLKPNDVSVFMTLTINGRLFACPREQFDSLTPLPEQEGPTVGTVGTFELMSSKDLAYQMTIYDWELFNCVHELELIYHTFGRHNFKKTTANLDLFLRRFNEIQFWVVTEICLCSQLSKRVQLLKKFIKIAAHCKEYKNLNSFFAIVMGLSNVAVSRLALTWEKLPSKFKKFYAEFESLMDPSRNHRAYRLTVAKLEPPLIPFMPLLIKDMTFTHEGNKTFIDNLVNFEKMRMIANTARTVRYYRSQPFNPDAAQANKNHQDVRSYVRQLNVIDNQRTLSQMSHRLEPRRP
B2: Library 1 C2: cAMP sensor; SEQID 10 in Table 1, SEQ ID NO: 11 in Table 3 (protein)
chain: MVAAHAAHSSSSAEWIACLDKRPLERSSEDVDIIFTRLKEVKAFEKFHPNLLHQICLCGYYENLEKGITLFRQGDIGTNWYAVLAGSLDVKVSETSSHQDAVTICTLGIGTAFGESILDNTPRHATIVTRESSELLRIEQKDFKALWEKYRQYMAGLLAPPYGVMETGSNNDRIPDKENTPLIEPHVPLRPANTITKVPSEKILRAGKILRNAILSRAPHMIRDRKYHLKTYRQCCVGTELVDWMMQQTPCVHSRTQAVGMWQVLLEDGVLNHVDQEHHFQDKYLFYRFLDDEHEDAPLPTEEEKKECDEELQDTMLLLSQMGPDAHMRMILRKPPGQRTVDDLEIIYEELLHIKALSHLSTTVKRELAGVLIFESHAKGGTVLFNQGEEGTSWYIILKGSVNVVIYGKGVVCTLHEGDDFGKLALVNDAPRAASIVLREDNCHFLRVDKEDFNRILRDVLENVYIKADKQKNGIKANFKIRHNIEDGGVQLAYHYQQNTPIGDGPVLLPDNHYLSVQSILSKDPNEKRDHMVLLEFVTAAGITLGMDELYKGGTGGSMVSKGEELFTGVVPIQVELDGDVNGHKFSVSGEGEGDATYGKLTLKFICTTGKLPVPWPTLVTTLTYGVQCFSRYPDHMKQHDFFKSAMPEGYIQERTIFFKDDGNYKTRAEVKFEGDTLVNRIELKGIDFKEDGNILGHKLEYNTREANTVRLKEHDQDVLVLEKVPAGNRASNQGNSQPQQKYTVMSGTPEKILEHFLETIRLEATLNEATDSVLNDFIMMHCVFMPNTQLCPALVAHYHAQPSQGTEQEKMDYALNNKRRVIRLVLQWAAMYGDLLQEDDVSMAFLEEFYVSVSDDARMIAALKEQLPELEKIVKQISEDAKAPQKKHKVLLQQFNTGDERAQKRQPIRGSDEVLFKVYCMDPTYTTIRVPVATSVKEVISAVADKLGSGEGLIIVKMSSGGEKVVLKPNDVSVFMTLTINGRLFACPREQFDSLTPLPEQEGPTVGTVGTFELMSSKDLAYQMTIYDWELFNCVHELELIYHTFGRHNFKKTTANLDLFLRRFNEIQFWVVTEICLCSQLSKRVQLLKKFIKIAAHCKEYKNLNSFFAIVMGLSNVAVSRLALTWEKLPSKFKKFYAEFESLMDPSRNHRAYRLTVAKLEPPLIPFMPLLIKDMTFTHEGNKTFIDNLVNFEKMRMIANTARTVRYYRSQPFNPDAAQANKNHQDVRSYVRQLNVIDNQRTLSQMSHRLEPRRP
B3: Library 2-1 B12: cAMP sensor; SEQID 9 in Table 1, SEQ ID NO: 10 in Table 3 (protein)
chain: MVAAHAAHSSSSAEWIACLDKRPLERSSEDVDIIFTRLKEVKAFEKFHPNLLHQICLCGYYENLEKGITLFRQGDIGTNWYAVLAGSLDVKVSETSSHQDAVTICTLGIGTAFGESILDNTPRHATIVTRESSELLRIEQKDFKALWEKYRQYMAGLLAPPYGVMETGSNNDRIPDKENTPLIEPHVPLRPANTITKVPSEKILRAGKILRNAILSRAPHMIRDRKYHLKTYRQCCVGTELVDWMMQQTPCVHSRTQAVGMWQVLLEDGVLNHVDQEHHFQDKYLFYRFLDDEHEDAPLPTEEEKKECDEELQDTMLLLSQMGPDAHMRMILRKPPGQRTVDDLEIIYEELLHIKALSHLSTTVKRELAGVLIFESHAKGGTVLFNQGEEGTSWYIILKGSVNVVIYGKGVVCTLHEGDDFGKLALVNDAPRAASIVLREDNCHFLRVDKEDFNRILRLENVYIKADKQKNGIKANFKIRHNIEDGGVQLAYHYQQNTPIGDGPVLLPDNHYLSVQSILSKDPNEKRDHMVLLEFVTAAGITLGMDELYKGGTGGSMVSKGEELFTGVVPIQVELDGDVNGHKFSVSGEGEGDATYGKLTLKFICTTGKLPVPWPTLVTTLTYGVQCFSRYPDHMKQHDFFKSAMPEGYIQERTIFFKDDGNYKTRAEVKFEGDTLVNRIELKGIDFKEDGNILGHKLEYNTRRILRDVEANTVRLKEHDQDVLVLEKVPAGNRASNQGNSQPQQKYTVMSGTPEKILEHFLETIRLEATLNEATDSVLNDFIMMHCVFMPNTQLCPALVAHYHAQPSQGTEQEKMDYALNNKRRVIRLVLQWAAMYGDLLQEDDVSMAFLEEFYVSVSDDARMIAALKEQLPELEKIVKQISEDAKAPQKKHKVLLQQFNTGDERAQKRQPIRGSDEVLFKVYCMDPTYTTIRVPVATSVKEVISAVADKLGSGEGLIIVKMSSGGEKVVLKPNDVSVFMTLTINGRLFACPREQFDSLTPLPEQEGPTVGTVGTFELMSSKDLAYQMTIYDWELFNCVHELELIYHTFGRHNFKKTTANLDLFLRRFNEIQFWVVTEICLCSQLSKRVQLLKKFIKIAAHCKEYKNLNSFFAIVMGLSNVAVSRLALTWEKLPSKFKKFYAEFESLMDPSRNHRAYRLTVAKLEPPLIPFMPLLIKDMTFTHEGNKTFIDNLVNFEKMRMIANTARTVRYYRSQPFNPDAAQANKNHQDVRSYVRQLNVIDNQRTLSQMSHRLEPRRP

The assay concerns cAMP. Nature of the assay: Fluorescence response of cAMP sensors to isoproterenol in HEK 293 cells co-expressing the beta adrenergic receptor. It counts as cell-based, human. As to conditions: in response to isoproternol. The method, then:
To test the functionality of these 28 prototype sensors, each construct was co-expressed with the beta adrenergic receptor, which couples to the Gs signaling pathway when activated by isoproteronol, in HEK 293 cells, and the fluorescence measured as described below. Briefly, 96-well glass-bottom plates were coated with Poly-D-Lysine (Fisher Scientific, Pittsburgh, Pa.) and HEK 293 were seeded and cultured in EMEM (ATCC, Manassas, Va.) supplemented with 10% fetal bovine serum and Penicillin-Streptomycin at 37 […] and 30 ng of beta adrenergic receptor per well, using Lipofectamine 2000 Transfection Reagent (Life Technologies, Grand Island, N.Y.) according to the manufacturer's protocol, and incubated for 24-48 hours at 37° C. in 5% CO2.
Prior to screening transfected cells for fluorescence, he EMEM culture medium was removed and 1×DPBS added to each well. A Zeiss Axiovert S100TV inverted microscope equipped with computer controlled excitation/emission filter wheels, shutters, and a Qimaging Retiga Exi CCD camera (Surrey, BC Canada) was used to image cells at 25e A) supplemented with 10% fetal bovine serum and Penicillin-Streptomycin at 37hn filters were used to resolve the green fluorescence from the cAMP sensors. Cells were analyzed for increases or decreases in fluorescence intensity upon addition of isoproternol, DMSO, forskolin and IBMX. To analyze the image stacks, background fluorescence was defined as a region of the image that contained no cells. The average value of this region was subtracted frame by frame from the measurements of the mean pixel values of the fluorescent cells. Fluorescence intensity data was plotted and analyzed with IGOR (Wavemetrics, Oswego, Oreg.).
For transient expression and screening in an automated fluorescence plate reader, HEK 293T cells were cultured in Corning Co-Star Polystyrene 96-well plates coated with Poly-D-Lysine. HEK293T cells were plated at 35,000 cells/well in 100 μl growth medium per well without antibiotics so that the cells would be 90-95% confluent at the time of transfection (approximately 24 hours later). For each transfection (i.e. one well in a 96-well plate), 160 ng of plasmid DNA (120 ng sensor+40 ng receptor) was diluted in […] and then the mixture was replaced with fresh medium. Prior to scanning a plate on the Biotek Synergy Mx, EMEM culture medium was replaced with 250 μl of 1×DPBS per well. Plates were read at 25° C., using monochromators set to 488/20 nm excitation and 530/20 nm emission to resolve the green fluorescence from the cAMP sensor.
As for B1, the “Relative Change in Fluorescence” value is −36%. With B2, the “Relative Change in Fluorescence” value came out at 36%.

As for B3, the “Relative Change in Fluorescence” value was −37%.
